Measurements as given in the supplement of paper PMC11876631.
Substitutions are numbered along the chain they refer to. Names may count otherwise. ± gives the standard deviation of the averaged measurements. Laboratory Escherichia coli strains with one amino-acid change in an essential protein, pooled on minimal glucose agar with carbenicillin or gentamicin at twice the control MIC (plus kanamycin and chloramphenicol for the plasmids), 48 h. Fold change of barcode share against drug-free plates; higher = less susceptible. Active = above 20 in both replicates (the paper's putatively resistant). '<' = one read or none on drug, '>' = one read or none on a drug-free plate. Shares are relative, so most strains fall below 1 when a few take over. Listed are strains with at least 15 reads on both drug-free plates, and hits; most hits rest on fewer reference reads. Replicate rank correlation about 0.5. Edits are read from barcodes.

B1: panM V77P (protein)
chain: MKLTIIRLEKFSDQDRIDLQKIWPEYSPSSLQVDDNHRIYAARFNERLLAAVRVTLSGTEGALDSLRVREVTRRRGPGQYLLEEVLRNNPGVSCWWMADAGVEDRGVMTAFMQALGFTAQQGGWEKC
B2: pdxB L106A (protein)
chain: MKILVDENMPYARDLFSRLGEVTAVPGRPIPVAQLADADALMVRSVTKVNESLLAGKPIKFVGTATAGTDHVDEAWLKQAGIGFSAAPGCNAIAVVEYVFSSLLMAAERDGFSLYDRTVGIVGVGNVGRRLQARLEALGIKTLLCDPPRADRGDEGDFRSLDELVQRADILTFHTPLFKDGPYKTLHLADEKLIRSLKPGAILINACRGAVVDNTALLTCLNEGQKLSVVLDVWEGEPELNVELLKKVDIGTSHIAGYTLEGKARGTTQVFEAYSKFIGHEQHVALDTLLPAPEFGRITLHGPLDQPTLKRLVHLVYDVRRDDAPLRKVAGIPGEFDKLRKNYLERREWSSLYVICDDASAASLLCKLGFNAVHHPAR
B3: pdxB V96W (protein)
chain: B2 chain with V96W, A106L
B4: pdxB V96A (protein)
chain: B2 chain with V96A, A106L
B5: pdxB L106W (protein)
chain: B2 chain with A106W
B6: pdxB L106Q (protein)
chain: B2 chain with A106Q
B7: pdxB L106D (protein)
chain: B2 chain with A106D

Target: Escherichia coli (laboratory strain)
Test: barcode share on antibiotic plates over drug-free plates; higher = less susceptible
Settings: antibiotic: carbenicillin; 2× MIC (3.1 µg/mL)
Method: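 A pool of E. coli strains, each edited to carry one amino-acid change in an essential protein, was grown for 48 h on minimal glucose agar with or without antibiotic; strain barcodes were sequenced; mean of two replicates.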

Protein	fold change of barcode share
B1	8.59 ± 1.7
B2	0.642 ± 0.035
B3	0.336 ± 0.09
B4	0.396 ± 0.063
B5	0.462 ± 0.23
B6	0.463 ± 0.22
B7	1.64 ± 0.31

Same assay, conditions: antibiotic: gentamicin; 2× MIC (MIC 0.45 µg/mL)

Protein	fold change of barcode share
B1	0.145 ± 0.057
B2	< 0.014
B3	< 0.00274
B4	0.00673 ± 0.006
B5	0.0189 ± 0.011
B6	< 0.0112
